The text below walks through data of paper PMC7819943, “Rice protein-binding microarrays: a tool to detect cis-acting elements near promoter regions in rice”.

The other results are listed elsewhere or left out.

The assay deals with T1, OsWOX13 (Oryza sativa, UniProt Q5QMM3 1-267).
T1 sequence: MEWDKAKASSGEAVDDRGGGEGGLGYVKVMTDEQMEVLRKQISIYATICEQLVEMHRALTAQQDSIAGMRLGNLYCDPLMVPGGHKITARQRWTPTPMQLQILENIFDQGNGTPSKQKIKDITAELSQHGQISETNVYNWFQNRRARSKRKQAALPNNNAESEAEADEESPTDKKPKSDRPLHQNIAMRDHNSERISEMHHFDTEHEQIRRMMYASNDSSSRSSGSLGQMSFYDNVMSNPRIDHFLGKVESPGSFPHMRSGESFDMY
Kind of assay: protein-binding microarray (RPBM); PBS, 2% BSA, 51.3 ng/ul salmon testes DNA, 50 uM zinc acetate, 200 nM TF, 25 C, 1 h; high values mean tight binding. The note with it: protein: recombinant; tags: N-terminal polyhistidine and DsRed monomer fusion (pET32a); label: CyDye5-dUTP incorporated in the synthesized complementary strand; 3' TTTTT single-stranded linker to array surface; dsDNA, one strand shown. The method in brief: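 Per-feature fluorescence intensity (arbitrary units), read on an Axon 4000B scanner, is the binding signal. Transcription factors carrying an N-terminal polyhistidine tag and DsRed fusion were expressed in E. coli BL21-CodonPlus and purified on Ni–NTA. A custom Agilent array, made double-stranded by primer extension with Cy5-dUTP and blocked with 2% BSA, was incubated with 200 nM protein in PBS, 2% BSA, salmon testes DNA and 50 µM zinc acetate at 25 °C for 1 h and then washed.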
With “ACTAATTCTCCTTCCATAATTAAATATACTTCCGTACTTTCGGAGTCACCTAGTGCAG”, the binding signal was 6590 fluorescence intensity (a.u.).

“TCCAAATTCCTGTAACAGAGTTGACATAAGTAGTTGTTTGCGGAGTCACCTAGTGCAG”: the binding signal is 3460 fluorescence intensity (a.u.).

Take “TATTTATAATTAGTATATAAACATGTGATATGATAGATACCGGAGTCACCTAGTGCAG”: the binding signal was 15900 fluorescence intensity (a.u.).

On to “TAGTTGAATAGGTAATTAATCATTTTAACATTAATAATGACGGAGTCACCTAGTGCAG”, for which the binding signal was 10800 fluorescence intensity (a.u.).

“CTAACACCACAGAATGTTAATTAGCTCACCCGACAACTGGCGGAGTCACCTAGTGCAG”: the binding signal was 3280 fluorescence intensity (a.u.).

On to “AACAAACAGATGAAACAAATCAGTGAGATCCATCAAAAGCCGGAGTCACCTAGTGCAG”, for which the binding signal was 7060 fluorescence intensity (a.u.).

As to “ACTAACTCTAAATCATTTATAGTCAATCTAATAGCCAATTCGGAGTCACCTAGTGCAG”, the binding signal was 15200 fluorescence intensity (a.u.).

As for “ACTAAATTATAGCAGCCAAGAGCGAATCGCCTCTGGCCTCCGGAGTCACCTAGTGCAG”, the binding signal is 6500 fluorescence intensity (a.u.).

Take “AATTCTAATTGGGGAGCATTTAAAGGCTGGGTTTTAGTGGCGGAGTCACCTAGTGCAG”: the binding signal was 20100 fluorescence intensity (a.u.).

“GTCAATAGTATTGATTGATAATATATACTCGAGATAATTTCGGAGTCACCTAGTGCAG”: the binding signal is 35900 fluorescence intensity (a.u.).

For the sequence “ACGTTTATTGATGGTGGACCTAAATCACAAGGAACATCCTCGGAGTCACCTAGTGCAG”, the binding signal is 9050 fluorescence intensity (a.u.).

As for “GACTTGATAATTAAACAGGCAGTACCAATATTCCAAGCCACGGAGTCACCTAGTGCAG”, the binding signal was 22700 fluorescence intensity (a.u.).

Turning to “ATTGTGATTTACTTTCGTAGAGATATAATTGAGCCACTATCGGAGTCACCTAGTGCAG”, the binding signal was 12500 fluorescence intensity (a.u.).

For the sequence “GAACTTTATTAACTGATAATCAGCCGTGATCAAATTGCACCGGAGTCACCTAGTGCAG”, the binding signal is 28000 fluorescence intensity (a.u.).

With “CTAATTAAACAAGAAGCTGATTAACTTGTCATCGGAGAGACGGAGTCACCTAGTGCAG”, the binding signal is 8710 fluorescence intensity (a.u.).

In the case of “CATAATTTTCGAGCGACTCGCCTAATCAACATATTCATTGCGGAGTCACCTAGTGCAG”, the binding signal is 7930 fluorescence intensity (a.u.).

Regarding “GTCTCAACGATGATAGATTAGCGTGCAACTAATCGGCAGACGGAGTCACCTAGTGCAG”, the binding signal is 10100 fluorescence intensity (a.u.).

Regarding “GCTCCACAATTAATAAATTCCCGTATTATTTAATTCATTCCGGAGTCACCTAGTGCAG”, the binding signal is 4140 fluorescence intensity (a.u.).

As to “TTAATTAAATAATTAGCTAATCTCTCTTACACACAAAACGCGGAGTCACCTAGTGCAG”, the binding signal is 34500 fluorescence intensity (a.u.).

As for “GATGTATGATTGGTCTTTGTGTGATGTAAGTTGGCAATAACGGAGTCACCTAGTGCAG”, the binding signal was 24800 fluorescence intensity (a.u.).

As to “CGGTGATGAATGTCGTGTGAGATTGATATGATCGGGAGGGCGGAGTCACCTAGTGCAG”, the binding signal is 14700 fluorescence intensity (a.u.).

Regarding “GTCCTAAATTGCTACAACCACTTCAGAATTCTGCATGGTGCGGAGTCACCTAGTGCAG”, the binding signal is 12600 fluorescence intensity (a.u.).

Regarding “CTGAAATTAAATTTAGAAGTTATAGCTCTACCAAACAGGCCGGAGTCACCTAGTGCAG”, the binding signal was 28400 fluorescence intensity (a.u.).

With “TTGCAATTGCCAATTTCTTTATTATATTGTTGGTTTAACTCGGAGTCACCTAGTGCAG”, the binding signal is 16700 fluorescence intensity (a.u.).

As to “CATCATCAATCTATCAATTACTATTTCGCATACTATTATACGGAGTCACCTAGTGCAG”, the binding signal is 18200 fluorescence intensity (a.u.).

“AAATCAAATTAATTTTATTAAATGTAACAATGAATATATTCGGAGTCACCTAGTGCAG”: the binding signal was 19700 fluorescence intensity (a.u.).

For “GTAAATCAATAAAATCATTGGAACCACGAAACAAGGTCAACGGAGTCACCTAGTGCAG”, the binding signal is 6080 fluorescence intensity (a.u.).

For the sequence “TGAATATAAAATTTGCAATCACTTGATAACATTTGTATCACGGAGTCACCTAGTGCAG”, the binding signal was 7760 fluorescence intensity (a.u.).

On to “GGAGGGAGTAATAGTCAGTGATTGGCTGGGTGGATAGAATCGGAGTCACCTAGTGCAG”, for which the binding signal was 17700 fluorescence intensity (a.u.).

As to “ACCCAATCAAATCCTAAGTTGCATTAATCCAACCGCAATTCGGAGTCACCTAGTGCAG”, the binding signal is 9080 fluorescence intensity (a.u.).

Consider “TTACTATATAATTAGCACGTATAAATAGCCATCGCACATGCGGAGTCACCTAGTGCAG”, for which the binding signal is 11600 fluorescence intensity (a.u.).

For “TTGATAATTTTGGTTATAAATCTCTTGTTGTATGATACATCGGAGTCACCTAGTGCAG”, the binding signal was 9520 fluorescence intensity (a.u.).

As to “CCGTTTGATTGTTTGTCTGGCGTTAATTTTCGCGAACTGCCGGAGTCACCTAGTGCAG”, the binding signal is 45900 fluorescence intensity (a.u.).

Regarding “TTAAATCATTGATCAATATGTAGATACACAATCGGCACGACGGAGTCACCTAGTGCAG”, the binding signal was 16500 fluorescence intensity (a.u.).

For “ATTTTAATTTTGAATTTCAGTTACTTCTAAATTGAATTCCCGGAGTCACCTAGTGCAG”, the binding signal was 18300 fluorescence intensity (a.u.).

On to “GCTAATTTGTCAAAATTTTAACATTGCTAAAATTTGATATCGGAGTCACCTAGTGCAG”, for which the binding signal was 38600 fluorescence intensity (a.u.).

Take “CCGTTACATTGTTCCAATTTTAATTAAACTTCCAATTTTACGGAGTCACCTAGTGCAG”: the binding signal was 6400 fluorescence intensity (a.u.).

Turning to “TTCAAAATTGACGTTGTTGTTTGGCCGTGTTTCCATTACACGGAGTCACCTAGTGCAG”, the binding signal was 15900 fluorescence intensity (a.u.).

“GTTGATGGGCAGCTTAATTACGGCCCGCCTGTTTAGCCAACGGAGTCACCTAGTGCAG”: the binding signal is 17500 fluorescence intensity (a.u.).

As for “TAACTTTGATAGACACAATATAATACAAATACACTGACAACGGAGTCACCTAGTGCAG”, the binding signal is 16500 fluorescence intensity (a.u.).

With “AAGCTCTTCTTTCAATTAACATATTTCAGAAGGACTTATCCGGAGTCACCTAGTGCAG”, the binding signal is 3920 fluorescence intensity (a.u.).

As for “TCCGATCGGCTTGATTGAACGGCAGGATGATAAGGGTGGACGGAGTCACCTAGTGCAG”, the binding signal is 35900 fluorescence intensity (a.u.).
